Laboratory results taken from article PMC1950744, “Transcription Termination Defective Mutants of Rho: Role of Different Functions of Rho in Releasing RNA from the Elongation Complex” (Journal of Molecular Biology, 2007).

B1: Rho G51V (enzyme)
chain: not shown
notes: Transcription termination factor Rho, Escherichia coli; mutant rho gene cloned at NdeI/XhoI of pET21b; source: E. coli BL21(DE3), purified (Ni-NTA, heparin-Sepharose)
B2: Rho Y80C (enzyme)
chain: not shown
notes: Transcription termination factor Rho, Escherichia coli; mutant rho gene cloned at NdeI/XhoI of pET21b; source: E. coli BL21(DE3), purified (Ni-NTA in the presence of 1 M NaCl, heparin-Sepharose)
B3: Rho Y274D (enzyme)
chain: not shown
notes: as for B1
B4: Rho P279S (enzyme)
chain: not shown
notes: as for B1
B5: Rho G324D (enzyme)
chain: not shown
notes: as for B1
B6: Rho N340S (enzyme)
chain: not shown
notes: as for B1
B7: Rho I382N (enzyme)
chain: not shown
notes: Transcription termination factor Rho, Escherichia coli; mutant rho gene cloned at NdeI/XhoI of pET21b; source: E. coli BL21SI (salt-inducible strain), purified (Ni-NTA, heparin-Sepharose)

Biological target: the molecule itself
Test: cross-linking; chemical cross-linking of purified Rho proteins; hexamer above the concentration of 1 μM; data not shown

Stoichiometry N, 6:
B1
B2
B3
B4
B5
B6
B7
